Data on 18 compounds can be found in PubChem BioAssay AID1745853 (National Center for Advancing Translational Sciences (NCATS), 2022).

The list shows a part of the results. These are further read-outs of the screen, such as a control signal, another cell line or another target. No call is given for them.

Holding throughout (assay): Primary Screen for Target Class Profiling of Small Molecule Inhibitors of Methyltransferases
In test [1] the target is Glycine N-methyltransferase (Homo sapiens) (UniProt Q14749). Conditions: purified enzyme, MTase-Glo SAH luminescence; measured here: GNMT inhibition; at 40 µM; stronger effect = lower value. The procedure, abridged:
(§1)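 Each enzyme was assayed with SAM and its substrate. SAH formation detected by MTase-Glo luminescence; single-point 40 uM screen[…].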

Test [2] addresses Guanidinoacetate N-methyltransferase (Homo sapiens) (UniProt Q14353). Conditions: purified enzyme, MTase-Glo SAH luminescence; measured here: GAMT inhibition; at 40 µM; stronger effect = lower value. The method, boiled down:
as §1

Test [3] has as its target Histamine N-methyltransferase (Homo sapiens) (UniProt P50135). Conditions: purified enzyme, MTase-Glo SAH luminescence; measured here: HNMT inhibition; at 40 µM; stronger effect = lower value. The method, boiled down:
as §1

Test [4] addresses Nicotinamide N-methyltransferase (Homo sapiens) (UniProt P40261). Conditions: purified enzyme, MTase-Glo SAH luminescence; measured here: NNMT inhibition; at 40 µM; stronger effect = lower value. The method, boiled down: as §1
The target in test [5] is Phenylethanolamine N-methyltransferase (Homo sapiens) (UniProt P11086). The note with it: purified enzyme, MTase-Glo SAH luminescence; measured here: PNMT inhibition; at 40 µM; stronger effect = lower value. The procedure, abridged: as §1
% is scaled to controls: 0 for no effect and ±100 for the full control effect.

Take `Cc1cccc(-c2nnn3c2nc(N2CCCCC2)c2ccccc23)c1`: the activity change, negative = inhibition in test [1] is -1.58%; in test [2] it was 4.83%; in test [3], 4.12%; in test [4], -1.75%; in test [5] it was -13.4%.

Take `O=C(C1OC1/C=C/c1ccc2c(c1)OCO2)N1CCCCC1` (stereo not given): the activity change, negative = inhibition in test [1] was 2.5%; in test [2], 7.03%; in test [3], 1.86%; in test [4] it was -7.14%; in test [5] it was 4.51%.

`CCCn1c(=O)c2ccc(Cl)cc2n2c(=O)n(CC(=O)c3ccc(Br)cc3)nc12`: the activity change, negative = inhibition amounted to 3.99% in test [1]; 0% in test [2]; 11.3% in test [3]; 5.08% in test [4]; 3.73% in test [5].

In the case of `O=C(CCn1ccc2cc(S(=O)(=O)N3CCCCC3)ccc21)NCCc1ccccc1Cl`, the activity change, negative = inhibition is -3.06% in test [1]; -3.77% in test [2]; 4.03% in test [3]; -7.61% in test [4]; -5.14% in test [5].

With `CSCCCN1CC[C@@H](NC(=O)c2ccncc2)[C@H](O)C1`, the activity change, negative = inhibition in test [1] was -6.62%; in test [2], -9.13%; in test [3] it was -4.93%; in test [4] it was -14.1%; in test [5], 1.78%.

For the compound `c1cncc(-c2nnc3n2CCN(Cc2ccsc2)C3)c1`, the activity change, negative = inhibition is -2.81% in test [1]; -4.18% in test [2]; 0.854% in test [3]; -9.91% in test [4]; -2.5% in test [5].

Consider `COc1ccc(-c2nnc3n(CCCOC(C)C)c(=O)c4ccccc4n23)cc1OC`, for which the activity change, negative = inhibition in test [1] was -3.44%; in test [2] it was 3.67%; in test [3] it was 2.42%; in test [4], -0.155%; in test [5] it was 0.036%.

For the compound `C=CCn1c(=O)c2ccc(C(=O)NC(C)CC)cc2n2c(=O)n(CC(=O)Nc3ccc(F)cc3)nc12` (stereo not given), the activity change, negative = inhibition in test [1] was 3.83%; in test [2], 3.21%; in test [3], 1.01%; in test [4] it was 0.346%; in test [5], 3.28%.

For the compound `O=C(C1CC1)N1CCC(Cc2noc(-c3ccncc3)n2)C1` (stereo not given), the activity change, negative = inhibition in test [1] was -6.82%; in test [2], -6.73%; in test [3], -4.97%; in test [4], -11.7%; in test [5] it was -18.6%.

Turning to `Cc1cc2ncc(C(=O)NCc3ccccc3Cl)cn2n1`, the activity change, negative = inhibition in test [1] is -3.01%; in test [2], 0.946%; in test [3], -4.5%; in test [4], -4.05%; in test [5], -0.757%.

Consider `COc1ccc(C(=O)N2CC[C@H](c3nnc(-c4ccccc4)o3)C2)cc1`, for which the activity change, negative = inhibition in test [1] was -5.55%; in test [2], 5.27%; in test [3], 0.253%; in test [4], -8.8%; in test [5], -4.83%.

With `NC1(C(=O)O)CC1`, the activity change, negative = inhibition in test [1] was -11.5%; in test [2] it was -0.256%; in test [3], -5.47%; in test [4], -8.34%; in test [5], 1.82%.

As to `CCCn1c(=O)c2ccc(C(=O)NCC(C)C)cc2n2c(=O)n(Cc3ccccc3C)nc12`, the activity change, negative = inhibition in test [1] was -0.854%; in test [2], 0%; in test [3], 5.67%; in test [4], 1.99%; in test [5], 3.98%.

Regarding `O=c1[nH]nc2n1CCN(CC1CCCCC1)CC2`, the activity change, negative = inhibition in test [1] is -1.46%; in test [2] it was -0.952%; in test [3] it was -1.48%; in test [4], -1.93%; in test [5], 17.6%.

In the case of `O=C1CN(Cc2ccccc2F)S(=O)(=O)c2ccccc2N1Cc1ccccc1`, the activity change, negative = inhibition in test [1] was 5.45%; in test [2], 3.13%; in test [3], 3.61%; in test [4], 0.77%; in test [5] it was 4.67%.

On to `CCC1c2ccc(C)n2CCN1C(=O)NCc1ccccc1` (stereo not given), for which the activity change, negative = inhibition in test [1] is -0.683%; in test [2], 0%; in test [3] it was 1.61%; in test [4], 2.48%; in test [5], -3.66%.

As for `COCC(=O)N1CCC(C2CCN(C(=O)c3ccncc3)CC2)C1` (stereo not given), the activity change, negative = inhibition in test [1] was -0.585%; in test [2] it was 1.67%; in test [3], -0.065%; in test [4], -0.451%; in test [5] it was -3.05%.

Take `CC1OC2OC3C(OCC(O)C3O)OC(=O)C34CCC(C)(C)CC3C3=CCC5C6(C)CC(O)C(OC7OC(CO)C(O)C(O)C7OC7OCC(OC(=O)CC(C)(O)CC(=O)OC1C(OC1OCC(O)C(O)C1O)C2O)C(O)C7O)C(C)(CO)C6CCC5(C)C3(C)CC4O` (stereo not given): the activity change, negative = inhibition is -0.547% in test [1]; 12% in test [2]; -0.709% in test [3]; -6.32% in test [4]; 3.56% in test [5].
